Data as given in PubChem BioAssay AID1240 (Sanford-Burnham Center for Chemical Genomics, 2008).
About 800 (1.6%) of roughly 50,000 compounds showed an effect of 50% or more. This is one part of the list.

These compounds were tested against Bcl-2-like protein 10 (Homo sapiens) (UniProt Q9HD36) (assay: TR3 peptide-Bcl-B binding displacers, biochemical primary FP assay, phenotype converters (AID 1240;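 also: 0% = Bcl-B with tracer peptide and DMSO and 100% = tracer peptide lacking Bcl-B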)). Conditions: GST-Bcl-B / FITC-TR3 peptide fluorescence polarization; stronger effect = higher value; compound at 3.75 mg/L.
Chain of UniProt Q9HD36 (Q9HD36 whole entry, looked up): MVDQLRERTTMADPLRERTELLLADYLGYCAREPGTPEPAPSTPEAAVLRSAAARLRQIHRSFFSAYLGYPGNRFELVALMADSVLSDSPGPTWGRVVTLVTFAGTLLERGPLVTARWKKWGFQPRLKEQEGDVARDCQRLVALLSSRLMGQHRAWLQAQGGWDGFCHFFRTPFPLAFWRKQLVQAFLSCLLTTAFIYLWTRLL

Row | Compound | displacement [%]
1 | COc1cc(C)cc2oc(=O)cc(C)c12 | -10
2 | C=C(C)COc1ccc2c(C)cc(=O)oc2c1 | -22.4
3 | COc1ccc(-c2nc(-c3cccnc3)no2)cc1 | -8
4 | O=[N+]([O-])c1cccc(-c2csc(N/N=C\c3ccccc3O)n2)c1 | -15.3
5 | O=C(Nc1ccccc1C(F)(F)F)c1ccc(Cl)cc1Cl | -12.7
6 | Cc1ccc(-n2ncnc2-c2ccc(Br)cc2)cc1Cl | 2.2
7 | CCCC(=O)Nc1ccc(NC(=O)C(C)(c2ccccc2)c2ccccc2)cc1 | 3.4
8 | CC1CCN(C(=S)Nc2ccc(F)cc2)CC1 | -0.2
9 | O=C(O)c1cccc(NC(=O)c2cccc(F)c2)c1 | -1.4
10 | COC(=O)c1ccc(N(S(=O)(=O)c2ccc(NC(C)=O)cc2)S(=O)(=O)c2ccc(NC(C)=O)cc2)cc1 | 10.9
11 | Cc1cc(OCC(=O)NC2CC(C)(C)NC(C)(C)C2)ccc1Br | 27.2
12 | O=C(COc1ccc([N+](=O)[O-])cc1)Nc1ccc2nn(-c3ccc(F)cc3)nc2c1 | 9
13 | CCCCOc1ccc2c3c(c(=O)oc2c1)CCCC3 | -7.7
14 | CSc1nc2c(c(=O)n1C)C(C)(C)Cc1ccccc1-2 | -3.3
15 | O=C(COc1ccc(Cl)cc1)Nc1ccc(N2CCCCC2)c(Cl)c1 | -5.2
16 | O=S(=O)(c1ccc(Cl)cc1)N1CCN(Cc2ccccn2)CC1 | -6
17 | COc1ccc(C2C(C(=O)/C=C/c3ccccc3)=C(O)C(=O)N2CCCCCC(=O)O)c(OC)c1 (stereo not drawn) | -5.2
18 | CCOc1ccc(C2C(C(=O)OC)=CNC=C2C(=O)OC)cc1 | 44.5
19 | COC(=O)c1ccc2c(c1)-c1ccc(C(=O)OC)c3cccc-2c13 | 11.6
20 | O=C1c2ccccc2-c2nc3ccc([N+](=O)[O-])cc3nc21 | -0.9
21 | CN(C)CCNC(=S)NC(=O)C12CC3CC(CC(C3)C1)C2 | -9.3
22 | FC(F)(F)c1ccccc1C=NN1CCN(Cc2ccccc2Cl)CC1 | -10.8
23 | Cc1cc(C(=O)Nc2c[nH]c(=O)[nH]c2=O)ccc1[N+](=O)[O-] | 8.2

Row | Compound | displacement [%]
24 | Nc1nnc(SCC(=O)NCCOc2ccccc2)s1 | -0.6
25 | CCOc1ccc(N(CC(=O)NCCSCc2ccc(C)cc2)S(C)(=O)=O)cc1 | 4.1
26 | CC(C)(C)C(=O)Nc1nnc(-c2ccccc2)s1 | -0.9
27 | O=C(O)c1nn(-c2ccccc2)c(=O)c2ccccc12 | -8.4
28 | COc1ccc(C2/C(=C(\O)c3ccccc3)C(=O)C(=O)N2CCCCCC(=O)O)cc1OC (stereo not drawn) | 0.9
29 | Cc1cc(C)n2c(SCc3cccc(Oc4ccccc4)c3)nnc2n1 | -11.2
30 | CC1=C(C(=O)Nc2ccccc2)C(c2ccc([N+](=O)[O-])cc2)NC(=S)N1 (stereo not drawn) | 2.7
31 | CCSCCOC(=O)C1=C(C)N(C)C(=O)NC1c1cc(OC)ccc1OC (stereo not drawn) | -8
32 | O=C(c1cccc([N+](=O)[O-])c1)N1CCN(c2cccc(C(F)(F)F)c2)CC1 | 2.2
33 | CC1=NN(c2ccccc2)C(=O)C1C=C1C(=O)NC(=S)NC1=O (stereo not drawn) | -2.6
34 | COc1ccc2nc(NC(=O)c3ccccc3OC)sc2c1 | 4.1
35 | CSc1nc2sc3c(c2c(=O)[nH]1)CCN(Cc1ccccc1)C3 | 81
36 | N/C(=N\OC(=O)c1cccc(Br)c1)c1cccc([N+](=O)[O-])c1 | -3.8
37 | COc1ccc(/C(C)=N/NC(=O)c2cccc(Cl)c2)c(OC)c1 | -3.5
38 | O=C(Cc1ccc(Cl)cc1)Nc1cccnc1 | 13.5
39 | CCN1C(=O)CC(N2CCN(c3ccc(Cl)cc3)CC2)C1=O (stereo not drawn) | -4.1
40 | O=C(CSCc1cccc(Br)c1)NCc1ccco1 | 1
41 | O=C(CSCc1ccc(Br)cc1)N/N=C/c1ccc(Sc2ccccn2)o1 | -17.7
42 | COc1ccc(CC(=O)Nc2ccc(Br)cc2C)cc1OC | 5.8
43 | Cc1ccc(OCc2nnc(NC(=O)OCC(C)C)s2)c(C)c1 | -4.7
44 | O=C(Nc1ccc(NC(=O)c2cccnc2)cc1)c1ccc(NC(=O)c2cccnc2)cc1 | 3.4
45 | CC(C)Cc1cc(-c2ccco2)c(C#N)c(N)n1 | 12.5
46 | CC(C)CCNC(=O)C(=O)Nc1nccs1 | 7.1

Row | Compound | displacement [%]
47 | Cc1cc(C)nc(SCC(=O)N/N=C/c2cc([N+](=O)[O-])ccc2O)n1 | -14.6
48 | Brc1ccc2nc(N3CCNCC3)nc(-c3ccccc3)c2c1 | -8.1
49 | CCOc1ccc2cc(S(=O)(=O)n3ccnc3C)ccc2c1 | 0.4
50 | COCCNC(=O)COc1ccc(Br)c(C)c1 | -6.3
51 | O=C(CSC1CC(=O)N(c2cc(Cl)cc(Cl)c2)C1=O)Nc1ccc(Br)cc1 (stereo not drawn) | 11.1
52 | O=C(NCc1ccccn1)C(=O)N/N=C/c1ccccc1F | -3.6
53 | O=C(Nc1ccc(I)cc1)C1CC=CCC1C(=O)OCC(Cl)=C(Cl)Cl (stereo not drawn) | -2.4
54 | CN(C)CCNCC12CC3CC(CC(C3)C1)C2 | -3.1
55 | COc1ccc(NC(=S)NC(=O)c2cccs2)cc1 | -9.3
56 | CN1C(=O)/C(=C\c2ccccc2OCCOCCOc2ccccc2)SC1=S | 3.3
57 | O=C(NCCN1CCOCC1)c1nn2c(C(F)(F)F)cc(-c3ccccc3)nc2c1Cl | -0.7
58 | COc1ccc(N2C(=O)CC(NCCc3ccc(OC)c(OC)c3)C2=O)cc1 (stereo not drawn) | 9.1
59 | Cc1ccc(-c2ccc(OCC(=O)Nc3ccccc3[N+](=O)[O-])cc2)cc1 | -3.2
60 | Cc1cc(C)c2nc3s/c(=C\c4ccc(Cl)cc4)c(=O)n3c2c1 | -7.8
61 | Cc1cc2oc(=O)cc(C)c2cc1NC(=O)c1ccccc1 | 40.8
62 | COc1cc(OC)c(OC)cc1C=NCC1OCCc2ccccc21 (stereo not drawn) | 9.8
63 | O=C1CCCC2=C1C(c1ccc([N+](=O)[O-])cc1)C1=C(CCCC1=O)N2c1ccc(Cl)cc1 | 17.8
64 | COc1ccc(C(=O)Nc2ccccc2C(=O)NCc2ccco2)cc1 | 9.5
65 | CC(C)=NNC(=O)C(C)Oc1ccc(Cl)cc1 (stereo not drawn) | 5.1
66 | CC1=C(C(=O)Nc2cc(Cl)ccc2C)C(c2ccc(F)cc2)NC(=O)N1 (stereo not drawn) | 12.6
67 | O=C(Nc1nccs1)c1sc2ccccc2c1Cl | -13.5
68 | CCOc1cc(/C=C2\N=C(c3ccccc3)OC2=O)ccc1OCc1c(C)no[n+]1[O-] | 5.7
69 | CC(C)C(=O)Nc1ccc(Oc2ccc(Cl)cc2)cc1 | 0

Row | Compound | displacement [%]
70 | O=C(Nc1cccc(Br)c1)c1ccccc1[N+](=O)[O-] | 1.8
71 | Cc1cccc(OCC(=O)Nc2ccccc2F)c1C | 3.7
72 | COc1ccc(C2CC(C(F)(F)F)n3ncc(C(N)=O)c3N2)cc1 (stereo not drawn) | 6.5
73 | CCCOc1ccc(Cl)cc1/C=C(/C#N)c1nc2ccc(C)cc2[nH]1 | 15.5
74 | O=C(Cc1ccccc1)Nc1ncc(Cc2ccc(Cl)cc2Cl)s1 | 17
75 | Cc1ccsc1/C=C1\SC(=S)N(CCc2ccccc2)C1=O | -1.2
76 | CCCOC(=O)c1ccc(N=Cc2cc(Br)ccc2O)cc1 | 10.8
77 | C/C(=N\Nc1cc(-n2nc(C)cc2C)nc(C)n1)c1ccc(C)cc1 | -10
78 | O=C(/C=C/c1ccccc1Cl)Nc1nccs1 | 10.1
79 | C=C(C)C(C)(C#CCN1CCOCC1)OC(C)=O (stereo not drawn) | 1.4
80 | CCOC(=O)Cc1csc(NC(=O)c2ccc(N3CCOCC3)c([N+](=O)[O-])c2)n1 | -7
81 | COc1ccc(OC)c(N(CC(=O)NCc2ccco2)S(=O)(=O)c2ccccc2)c1 | 3.7
82 | Cc1cccc(NC(=O)/C(C#N)=C\c2ccc(I)o2)c1C | -8.1
83 | CCC(=O)Nc1sc2c(c1C(=O)Nc1ccc(Cl)cc1)CCC2 | -3.3
84 | CC(C)(C#CC(O)(c1ccccc1)c1ccccc1)N1CCCC1 | 0.1
85 | Cc1nc(Nc2nc3ccccc3o2)[nH]c(=O)c1C | 6.4
86 | COc1ccccc1/C=C1\SC(=S)N(Cc2ccco2)C1=O | 1
87 | Cc1ccc(Cc2ccc(C(=O)Nc3ccc([N+](=O)[O-])cc3)o2)cc1 | 6.3
88 | CC(=O)OCc1cc(C)cc(C=O)c1C | -8
89 | CCOC(=O)Cc1cc(OC)c(OC)cc1Cc1cc(OC)c(OC)cc1CC(=O)OCC | 3
90 | CC(C)Sc1nc2ccc(N3C(=O)c4ccccc4C3=O)cc2s1 | -7.2
91 | CCNC(=O)C(=O)Nc1ccc(Cl)c(Cl)c1 | 5.4
92 | CC(C)c1ccc(N2C(=O)NC(=O)/C(=C/c3cn(C)c4ccccc34)C2=O)cc1 | 145

Row | Compound | displacement [%]
93 | COc1cc(/C=C2\SC(N3CCC(C)CC3)=NC2=O)ccc1O | 29.5
94 | CCOC(=O)c1ccccc1NC(=O)c1ccc(NC(C)=O)cc1 | -4.2
95 | C=CCN1C(=O)/C(=C\c2ccc(O)cc2)C(=O)NC1=S | -14.8
96 | COC(=O)c1sccc1NC(=O)c1cccc(OC)c1 | -1.5
97 | COc1cccc(C(=O)NC(NC(=S)Nc2cc(OC)ccc2OC)C(Cl)(Cl)Cl)c1 (stereo not drawn) | -0.4
98 | Cc1ccc(-c2noc(-c3ccc(I)cc3)n2)cc1 | 7.9
99 | Cc1ccc(CN2CCN(/N=C/c3cc([N+](=O)[O-])ccc3Cl)CC2)cc1 | 15.9
100 | CC1(C)CC(=O)C2=C(C1)Nc1ccccc1N(C(=O)c1ccccc1)C2c1cccc([N+](=O)[O-])c1 (stereo not drawn) | -5
101 | CCOc1ccc(/C=C2\C(=O)NC(=O)N(c3ccc(Cl)cc3)C2=O)cc1Cl | 7.8
102 | Cc1cccc(N2CCN(C(=O)c3cccc(Br)c3)CC2)c1C | -8.6
103 | COc1ccc(CNC2=CC(=O)OC23CCCCC3)cc1 | 11.6
104 | COc1c2c(nc3ccccc13)OC(C(C)(O)COC(C)=O)C2 (stereo not drawn) | 14.6
105 | CCO/C(=N\S(=O)(=O)c1ccc(Br)cc1)c1ccccc1 | 10.3
106 | Cc1cc(/C=C2/NC(=O)NC2=O)c(C)n1-c1cccnc1 | -1.2
107 | COc1ccc(C(=O)N2CCCN(C(=O)c3ccc(OC)cc3)CC2)cc1 | 9.4
108 | CCOC(=O)C1CCN(C(=O)Nc2cccc3ccccc23)CC1 | 11
109 | O=C1c2ccccc2NC(c2ccc(Br)cc2)N1Cc1ccccc1 (stereo not drawn) | 15.2
110 | O=C1OC(c2ccc(F)cc2)=N/C1=C\c1ccc2c(c1)OCO2 | 15.9
111 | N#Cc1c2c(c(N3CCN(c4ccccn4)CC3)n3c1nc1ccccc13)CCC2 | 2.1
112 | C=CCc1cccc2cc(C(=O)Nc3ccc(S(=O)(=O)Nc4nnc(CC)s4)cc3)c(=O)oc12 | -1.6
113 | O=C(/C=C/c1ccccc1)Nc1ccc(Cl)cc1Cl | 7.3
